Hit rate of the full screen: of about 48,000 compounds, about 550 (1.1%) were called active. Roughly 4% stayed inconclusive and do not appear here. No stated cut-off is given here; in the data, active means potency below about 15 µM; inconclusive means mostly about 16 µM to 33 µM; inactive means weaker than that. Some of the results follow.
Each compound was assayed against Lysosomal acid glucosylceramidase (Homo sapiens) (UniProt P04062) (assay: Glucocerebrosidase). Conditions: purified enzyme, resorufin glucoside fluorescence (screen aimed at inhibitors), 20 min.
Chain of UniProt P04062 (P04062 whole entry, looked up): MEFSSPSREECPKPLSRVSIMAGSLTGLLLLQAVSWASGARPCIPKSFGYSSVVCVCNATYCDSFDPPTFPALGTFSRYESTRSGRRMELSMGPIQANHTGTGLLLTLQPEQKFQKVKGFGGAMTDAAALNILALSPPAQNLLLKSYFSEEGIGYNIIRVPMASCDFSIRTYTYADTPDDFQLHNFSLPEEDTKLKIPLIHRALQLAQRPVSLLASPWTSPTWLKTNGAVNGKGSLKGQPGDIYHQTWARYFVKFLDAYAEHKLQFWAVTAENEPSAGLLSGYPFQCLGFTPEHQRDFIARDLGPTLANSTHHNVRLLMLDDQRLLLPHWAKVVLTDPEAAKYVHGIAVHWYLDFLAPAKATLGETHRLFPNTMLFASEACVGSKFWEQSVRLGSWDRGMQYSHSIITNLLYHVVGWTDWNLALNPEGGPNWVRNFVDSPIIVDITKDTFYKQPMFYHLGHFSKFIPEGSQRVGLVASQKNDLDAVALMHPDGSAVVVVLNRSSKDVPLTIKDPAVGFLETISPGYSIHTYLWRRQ
How it was run: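 Normal human glucocerebrosidase (0.2 nM final) was assayed with resorufin β-D-glucopyranoside (30 uM final) in 50mM citric acid/KH2PO4, 10mM sodium taurocholate, 0.01% tween-20, pH 5.9. Compounds were titrated; fluorescence (Ex 548, Em 600) read after 20 min at RT.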
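Further: the screen sought inhibitors.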
Potency means the concentration at half of the fitted maximal effect.

SMILES	Potency
O=C(NCC(c1cccnc1)N1CCN(c2ccc(F)cc2)CC1)c1cccc(Cl)c1 (stereo unspecified)	inactive: > 76.9 µM
CC(C)c1ccc(-c2noc(C3CCCN(C(=O)c4ccc(F)cc4F)C3)n2)cc1 (stereo unspecified)	inactive: > 76.9 µM
Cc1ccc(CCNC(=O)C2CCCN(S(=O)(=O)c3c(C)noc3C)C2)cc1 (stereo unspecified)	inactive: > 76.9 µM
Cc1ccc(NC(=O)CSc2nnc(-c3ccncc3)n2N)cc1C	inactive: > 76.9 µM
COc1ccc(OC)c(S(=O)(=O)Nc2ccccc2C(F)(F)F)c1	inactive: > 76.9 µM
O=S(=O)(CCSc1nc2ccccc2o1)Cc1ccccc1	inactive: > 76.9 µM
CCC1(COC(NC(=O)c2cccnc2)(C(F)(F)F)C(F)(F)F)COC1	inactive: > 76.9 µM
CCCn1c(CN(C)Cc2ccccc2)nc2c1c(=O)n(C)c(=O)n2C	inactive: > 76.9 µM
COc1cc(OC)cc(C(=O)N2CCC(n3c(C)nc4cc(F)ccc43)CC2)c1	inactive: > 76.9 µM
C=CCn1c(COC)nnc1SCC(=O)c1ccc(F)cc1	inactive: > 76.9 µM
Cc1cc2c(c(=O)n1Cc1ccc3c(c1)OCO3)C(c1cccnc1)C(C#N)=C(N)O2 (stereo unspecified)	inactive: > 76.9 µM
Cc1cccc(CS(=O)(=O)Cc2ccc(C(=O)NCCCN3CCOCC3)o2)c1	inactive: > 76.9 µM
CC1(C)c2ccccc2N2CCC(=O)NC21/C=C/c1ccco1 (stereo unspecified)	inactive: > 76.9 µM
CC1CCN(C(=O)CCCOc2cc(=O)n(C)c3ccccc23)CC1	inactive: > 76.9 µM
COc1ccc(OC)c(S(=O)(=O)N2CCCCCC2)c1	inactive: > 76.9 µM
NC(=O)C1CCCNC1 (stereo unspecified)	inactive: > 76.9 µM
NC(=O)C1CCN(c2nc(C3CC3)nc3c2nnn3Cc2ccccc2)CC1	inactive: > 76.9 µM
COCCn1nnnc1C(c1ccc(Cl)cc1)N1CCSCC1 (stereo unspecified)	inactive: > 76.9 µM
Cc1cc(N2CCN(c3ccccc3)CC2)n2nnnc2n1	inactive: > 76.9 µM
CC(OC(=O)CNC(=O)c1ccc2c(c1)OCO2)C(=O)NCCC1=CCCCC1 (stereo unspecified)	inactive: > 76.9 µM
CCCc1[nH]nc2c1C(c1ccc(Br)s1)C(C#N)=C(N)O2 (stereo unspecified)	inactive: > 76.9 µM
O=C1CC(c2ccco2)Cc2nc(NCC3CCCO3)ncc21 (stereo unspecified)	inactive: > 76.9 µM
Cc1nc2ccccc2n1CC(=O)NCCN1CCCC1	inactive: > 76.9 µM

SMILES	Potency
CC(=O)c1ccc(NC(=O)C2CCCNC2=O)cc1 (stereo unspecified)	inactive: > 76.9 µM
COc1cc(CNc2ncn[nH]2)cc(Br)c1OC	inactive: > 76.9 µM
CCCCNC(=O)Nc1ccccc1C(=O)NCc1ccco1	inactive: > 76.9 µM
CCCCCn1c(=O)[nH]c2cc(C(=O)NCCCN(CC)CC)ccc2c1=O	inactive: > 76.9 µM
O=C1c2ccccc2C(=O)N1Cc1nc(-c2cccnc2)no1	inactive: > 76.9 µM
CCOC(=O)C1CCN(C(C(=O)NC2CCCCC2)c2ccc(OC)cc2)CC1 (stereo unspecified)	inactive: > 76.9 µM
CC(=O)N1CCN(c2ccc(NCc3ccc(C)cc3)cc2)CC1	active: 11.6 µM
O=C(Cn1ccsc1=NC(=O)c1ccco1)c1ccccc1	inactive: > 76.9 µM
CCOC(=O)C1CCCN(C(=O)CSc2nccn2C)C1 (stereo unspecified)	inactive: > 76.9 µM
CCc1c(C)nc(N)n2c(SCC(=O)N3CCN(c4ccccc4OC)CC3)nnc12	inactive: > 76.9 µM
CCOC(=O)Cc1csc(NC(=O)c2c(-c3c(F)cccc3Cl)noc2C)n1	inactive: > 76.9 µM
COc1cccc(CC(C(=O)Nc2cc(C)ccc2C)c2nn[nH]n2)c1OC (stereo unspecified)	inactive: > 76.9 µM
CCN(CC)CCN1C(=O)c2oc3ccccc3c(=O)c2C1c1cccc(Br)c1 (stereo unspecified)	inactive: > 76.9 µM
Cc1ccc(Cn2nnc3c(=O)n(CC(=O)N4CCCCC4)cnc32)cc1	inactive: > 76.9 µM
CCOC(=O)c1sc2cccc(F)c2c1N	inactive: > 76.9 µM
Cc1cc(C)cc(N2C(=O)C3C4C=CC(C4)C3C2=O)c1 (stereo unspecified)	inactive: > 76.9 µM
COc1ccccc1/C=C/CN1CC(C)OC(C)C1 (stereo unspecified)	inactive: > 76.9 µM
Cc1cc(C2C(=O)CC(=O)CC2c2ccccc2)on1 (stereo unspecified)	inactive: > 76.9 µM
Cc1c(NC(=O)c2cc(-c3ccc4c(c3)OCO4)on2)c(=O)n(-c2ccccc2)n1C	inactive: > 76.9 µM
Cc1ccc(-c2nnc3sc(C4COc5ccccc5O4)nn23)cc1 (stereo unspecified)	inactive: > 76.9 µM
CCOc1ccccc1N(C(=O)CNC(=O)c1ccco1)C(C(=O)NC(C)(C)C)c1ccncc1 (stereo unspecified)	inactive: > 76.9 µM
O=C1C2CCCN2C(c2cccs2)N1c1ccc(Cl)cc1 (stereo unspecified)	inactive: > 76.9 µM
CCOCC(=O)Nc1ccc(S(=O)(=O)N2CCOCC2)cc1	inactive: > 76.9 µM

SMILES	Potency
Cc1cccc(NC(=O)c2ccc(NS(=O)(=O)c3c(C)noc3C)cc2)c1	active: 11.7 µM
O=C(Nc1ccccc1F)NC1CCN(Cc2nnnn2Cc2ccc(F)cc2)CC1	inactive: > 76.9 µM
Cc1ccc(S(=O)(=O)N2CCSC2c2ccco2)cc1 (stereo unspecified)	inactive: > 76.9 µM
CCOC(=O)N1CCN(C(=O)c2cc3c(=O)[nH]c4ccccc4c3s2)CC1	inactive: > 76.9 µM
Cc1cccc(C)c1NC(=O)CCCSc1nnc(-c2ccco2)o1	inactive: > 76.9 µM
CCc1nc(N2CCCC(C)C2)c2oc3ccccc3c2n1 (stereo unspecified)	inactive: > 76.9 µM
Clc1ccc(-c2nnc3sc(-c4ccco4)nn23)c(Cl)c1	inactive: > 76.9 µM
O=C(CCS(=O)(=O)Cc1ccccc1)NC1CCCCC1	inactive: > 76.9 µM
COc1ccc(NC(=O)CN2CCN(c3ccc(F)cc3)CC2)cc1Cl	inactive: > 76.9 µM
CC(=O)c1c(C)oc2ccc(NS(=O)(=O)c3ccc(O)c(C(=O)O)c3)cc12	inactive: > 76.9 µM
Cc1cc(=O)oc2c(CN(C)Cc3ccccc3)c(O)ccc12	inactive: > 76.9 µM
CCOC(=O)Cc1csc(NC(=O)CSc2nnc(C)n2C)n1	inactive: > 76.9 µM
COCCn1nnnc1C(c1ccccc1)N1CCN(Cc2ccc3c(c2)OCO3)CC1 (stereo unspecified)	inactive: > 76.9 µM
CCCCNc1cc(C)nc(NCc2ccccc2)n1	active: 6.26 µM
CCC1(c2ccc(F)cc2)NC(=O)N(CC(=O)c2ccc[nH]2)C1=O (stereo unspecified)	inactive: > 76.9 µM
O=C(Nc1ccc2c(c1)OCO2)c1cnn2c1NC(c1ccco1)CC2C(F)(F)F (stereo unspecified)	inactive: > 76.9 µM
COc1ccc(CCNC(=O)C2CC(=O)N(C3CCCC3)C2)cc1OC (stereo unspecified)	inactive: > 76.9 µM
NC(=O)CSc1nnc(C2CC2)n1Cc1ccccc1	inactive: > 76.9 µM
COc1ccc(-c2cc(=O)oc3cc(OCc4nn[nH]n4)ccc23)cc1	inactive: > 76.9 µM
O=C1CCCN1c1ccc(S(=O)(=O)Nc2ccc3c(c2)OCCO3)cc1	inactive: > 76.9 µM
CCCc1cc(=O)n2[nH]c(NCc3ccccc3F)nc2n1	inactive: > 76.9 µM
Cc1cc(C)n(C(=O)Cc2cn3ccsc3n2)n1	inactive: > 76.9 µM
N#CC1=C(N)C(C#N)(C#N)[C@H](c2ccncc2)[C@H]2CC3(CC=C12)OCCO3	inactive: > 76.9 µM

SMILES	Potency
COC(=O)c1ccccc1NC(=O)c1nc2nc(C)cc(C(F)F)n2n1	inactive: > 76.9 µM
O=C(NCCCN1CCCCC1)c1ccc2c(c1)NC(=O)C(N1CCCCC1)S2 (stereo unspecified)	inactive: > 76.9 µM
O=C1CCC(=O)N1OCCCOc1ccc2c(c1)CCC2	inactive: > 76.9 µM
CCCN1CCN(CCCNC(=O)Cn2nc(-c3ccc(Cl)cc3)ccc2=O)CC1	inactive: > 76.9 µM
COc1ccc(-n2c(SC3CCOC3=O)nc3ccccc32)cc1 (stereo unspecified)	inactive: > 76.9 µM
CC(=O)Nc1cccc(OCC(=O)Nc2ccccc2)c1	inactive: > 76.9 µM
CN(Cc1ccccc1)c1ncnc2c1cnn2-c1ccccc1	inactive: > 76.9 µM
CC(=O)Oc1ccc2c(c1)c(C(C)=O)c(C)n2C	inactive: > 76.9 µM
COc1ccccc1-c1nnc2sc(-c3cc4ccccc4o3)nn12	inactive: > 76.9 µM
Cc1cc(O)c(-c2cc(C(=O)NCc3ccc4c(c3)OCO4)[nH]n2)cc1C	inactive: > 76.9 µM
CC(C)(C)c1ccccc1NC(=O)c1cccnc1	inactive: > 76.9 µM
O=C(CCCCn1c(=O)[nH]c2ccsc2c1=O)NCC1CCCO1 (stereo unspecified)	inactive: > 76.9 µM
CC1CCCCN1C(=O)CSc1nnc(-c2c[nH]c3ccccc23)o1 (stereo unspecified)	inactive: > 76.9 µM
Cc1ccc(C)c(NS(=O)(=O)c2cc(C(N)=O)ccc2C)c1	inactive: > 76.9 µM
O=C(OCC(=O)N1CCc2ccccc21)c1cccnc1	inactive: > 76.9 µM
COCCn1c(SCC(=O)c2ccc(CNC(C)=O)o2)nc2ccccc2c1=O	inactive: > 76.9 µM
COC(=O)c1[nH]c2ccc(F)cc2c1NC(=O)CCN1CCN(Cc2ccc3c(c2)OCO3)CC1	inactive: > 76.9 µM
CCn1c(=O)c(C)nn2c3ccccc3nc12	inactive: > 76.9 µM
CCC(C(=O)NC1CCCC1)N(C(=O)Cn1nnc(-c2ccc(C)o2)n1)C(C)(C)C (stereo unspecified)	inactive: > 76.9 µM
COc1cccc(NC(=O)c2ccccc2NS(C)(=O)=O)c1	inactive: > 76.9 µM
COc1cc(CNC2CCC(C)C2)cc(OC)c1 (stereo unspecified)	inactive: > 76.9 µM
CCCCOC(=O)C(C#N)c1nc2ccccc2nc1N1CCOCC1 (stereo unspecified)	inactive: > 76.9 µM

Reference: PubChem BioAssay AID360 (National Center for Advancing Translational Sciences (NCATS), 2006)
